Reference: PubChem BioAssay AID2675 (National Center for Advancing Translational Sciences (NCATS), 2010)
Among all 280,000 compounds or so, about 100 (0.036%) were called active. The shares of active, inactive and inconclusive entries below differ from those in the screen. Calls follow the shape of the dose curve; as a rule, active = well fitted inhibition curve with a large enough effect in the signal ratio, with a control signal flat (not every such curve was filed as active); inconclusive = small, poorly fitted or top-dose-only effect, or effect the other way, or a change in a side signal; inactive = no such curve, though single readings can be large or run the other way; the % refers to the signal ratio. Potencies of inconclusive entries are doubtful fits and often do not repeat. A note “side channel” means that the fit belongs to a control or component signal, not to the main read-out.

Molecular target: Muscleblind-like protein 1 (Homo sapiens) (UniProt Q9NR56)
Sequence of UniProt Q9NR56 (Q9NR56 whole entry, looked up): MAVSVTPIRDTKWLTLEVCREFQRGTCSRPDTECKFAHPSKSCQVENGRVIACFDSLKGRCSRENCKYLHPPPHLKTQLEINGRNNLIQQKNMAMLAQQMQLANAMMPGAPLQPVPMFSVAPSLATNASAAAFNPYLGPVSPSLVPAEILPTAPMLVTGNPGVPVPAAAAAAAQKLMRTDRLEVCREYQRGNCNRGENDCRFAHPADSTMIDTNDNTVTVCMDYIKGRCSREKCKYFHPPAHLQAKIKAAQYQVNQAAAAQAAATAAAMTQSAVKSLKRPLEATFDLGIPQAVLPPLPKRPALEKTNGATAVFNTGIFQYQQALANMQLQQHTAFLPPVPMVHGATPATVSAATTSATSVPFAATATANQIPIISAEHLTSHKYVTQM
Experiment: qHTS Assay for Inhibitors of MBNL1-poly(CUG) RNA binding
Details: TR-FRET MBNL1-His/biotin-(CUG)12 binding, 665/545 ratio; series mostly up to 57.5 µM
Method in brief: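 TR-FRET readout: Ex 340 nm, 665/545 nm emission ratio, normalized to buffer-only (basal) and MBNL1-(CUG)12 controls. Complex of MBNL1-His with Biotin-(CUG)12, compounds 92 nM–58 uM, incubated 60 min at room temperature.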
Potency is read from the fitted curve at half-maximal effect; tags tell the direction and shape of the fitted curve or compound fluorescence and quenching.

Row | Compound | Potency
1 | Cc1ccc(CN2CCN(Cc3ccc(-n4cccn4)cc3C)CC2CCO)cc1 (centres undefined) | inconclusive: 50.1 µM [inhibitor, partial curve]
2 | O=C(c1cccc(C(F)(F)F)c1)C1CCCN(C(=O)CCCN2CCCC2=O)C1 (centres undefined) | inactive
3 | COc1ccc(CCNC(=O)CSCc2ccc([N+](=O)[O-])cc2)cc1 | inconclusive: 39.8 µM [quencher, side channel, single point]
4 | Cc1[nH]nc(SCC(=O)N2CCC(C)CC2)c1[N+](=O)[O-] | inconclusive: 22.4 µM [quencher, side channel, single point]
5 | Cc1ccc2nsnc2c1S(=O)(=O)NCCc1c(C)[nH]c2ccc(F)cc12 | inconclusive: 25.1 µM [quencher, partial curve]
6 | Cc1cc2c(s1)c1cnn(CC(=O)NCCc3ccccc3)c(=O)c1n2C | inactive
7 | O=C(C1CCCO1)N1CCN(Cc2c(O)ccc3ccccc23)CC1 (centres undefined) | inactive
8 | Cn1c(SCC(=O)Nc2ccccc2)nnc1-c1ccc2nonc2c1 | inconclusive: 3.55 µM [quencher, side channel, full curve]
9 | COc1ccc(Nc2c3ccccc3nc3ccccc23)cc1 | inconclusive: 14.1 µM [quencher, side channel, partial curve]
10 | C=CCn1c(=N)c(C(=O)OCC)cc2c(=O)n3cc(C)ccc3nc21 | inconclusive: 7.08 µM [quencher, partial curve]
11 | CC(=O)N1CCN(c2ccc(NCc3ccc(C)s3)cc2)CC1 | inactive
12 | NC(=O)c1ccccc1N/C=C/C(=O)c1ccc(Cl)cc1Cl | inconclusive: 12.6 µM [quencher, side channel, partial curve]
13 | Cc1nc2ccc(NC(=O)N3CCCCC3)cc2nc1C | inactive
14 | CS(=O)(=O)Nc1cccc(C2=NN(C(=O)c3ccco3)C(c3ccco3)C2)c1 (centres undefined) | inconclusive: 31.6 µM [quencher, side channel, single point]
15 | CCC(c1c(C)[nH]oc1=O)c1c(C)[nH]oc1=O | inconclusive: 12.6 µM [quencher, side channel, partial curve]
16 | O=C(CN1CCC(NC(=O)Nc2ccccc2)CC1)Nc1ccc([N+](=O)[O-])cc1 | inconclusive: 14.1 µM [quencher, side channel, partial curve]
17 | COc1ccc(CN2C(=O)c3cccnc3C2=O)cc1S(=O)(=O)NC1CCCCC1 | inconclusive: 25.1 µM [quencher, side channel, partial curve]
18 | CCOC(=O)Cc1csc(NC(=O)Cn2cnc3c2c(=O)n(C)c(=O)n3C)n1 | inactive
19 | O=C(CCCn1cnc([N+](=O)[O-])n1)Nc1ccc(Cl)cc1Cl | inconclusive: 14.1 µM [activator, partial curve, poor fit]
20 | Cc1ccc(-n2ncc3ccccc3c2=O)cc1Cl | inconclusive: 25.1 µM [quencher, side channel, single point]

Row | Compound | Potency
21 | COc1ccc(Cc2nnc(SCC(=O)NCC3CCCO3)o2)cc1 (centres undefined) | inactive
22 | COC(=O)c1sc2nc3c(cc2c1N)COC(C)(C)C3 | inconclusive: 20 µM [quencher, side channel, partial curve]
23 | O=C1CSC(c2cccc([N+](=O)[O-])c2)N1c1c(F)cccc1F (centres undefined) | inconclusive: 17.8 µM [quencher, side channel, partial curve]
24 | C=CCC1=C/C(=C\c2c(N)n3nc(CC(=O)N4CCCC4)sc3nc2=O)C=C(OC)C1=O | inconclusive: 17.8 µM [quencher, side channel, partial curve]
25 | c1ccc(-c2nnc(CN3CCCc4ccccc43)o2)cc1 | inconclusive: 17.8 µM [quencher, side channel, partial curve]
26 | COc1ccc(S(=O)(=O)N2CCC(C(=O)NCc3ccncc3)CC2)cc1OC | inactive
27 | Cc1ccc(-c2nn[nH]n2)cc1 | inconclusive: 8.91 µM [quencher, side channel, single point]
28 | N#Cc1c(/N=C/c2ccc(-c3ccccc3C(=O)O)o2)sc2c1CCCC2 | inconclusive: 25.1 µM [quencher, side channel, single point]
29 | C/C(Cn1cnc([N+](=O)[O-])n1)=N/NC(=O)COc1ccccc1Cl | inconclusive: 8.91 µM [quencher, side channel, partial curve]
30 | CCn1cc(/C=C(\NC(=O)c2cc(OC)c(OC)c(OC)c2)C(=O)NCCCN2CCOCC2)c2ccccc21 | inconclusive: 22.4 µM [quencher, side channel, single point]
31 | O=C(COc1ccc([N+](=O)[O-])cc1)Nc1ccc(C(=O)NCc2cccnc2)cc1 | inconclusive: 39.8 µM [quencher, side channel, single point]
32 | COc1ccc2[nH]c3c(C)c4ccncc4c(C)c3c2c1 | inconclusive: 20 µM [quencher, side channel, partial curve]
33 | NC(N)=Nc1nc(CCN2C(=O)c3ccccc3C2=O)cs1 | inconclusive: 39.8 µM [quencher, side channel, partial curve, poor fit]
34 | CS(=O)(=O)c1ccc2nc(NC(=O)c3ccc(Cl)cc3)sc2c1 | inconclusive: 25.1 µM [fluorescent, side channel, single point]
35 | COC(=O)C1=C(C)N(c2ccc(Cl)c(Cl)c2)C(=O)C1 | inactive
36 | O=C(Cn1c(NCCO)nc2ccccc21)c1ccc([N+](=O)[O-])cc1 | inconclusive: 15.8 µM [quencher, side channel, partial curve]
37 | CCOC(=O)c1cc2[nH]c3ccccc3c2[n+](-c2ccc([N+](=O)[O-])cc2)c1N | inconclusive: 10 µM [quencher, side channel, partial curve]
38 | C/C(=N\NC(=O)c1ccc(O)cc1)c1cc2ccccc2o1 | inconclusive: 25.1 µM [quencher, side channel, partial curve]
39 | Cc1cccc(-n2nc(C(=O)c3ccco3)cc(-c3nc4ccccc4[nH]3)c2=N)c1 | inconclusive: 3.16 µM [quencher, side channel, full curve]
